# Measured values published in publication PMC6919601, “Identification of Plasmodium dipeptidyl aminopeptidase allosteric inhibitors by high throughput screening” (PLoS ONE, 2019).
# Out of some 110,000 compounds screened, about 230 (0.21%) showed an effect of 50% or more. The list shows a part of the results.
# Target: DPAP1 (Plasmodium falciparum, UniProt Q8IIJ9)
# Experiment: primary screen, percent inhibition; read by cleavage of a fluorogenic dipeptide substrate; higher = more effect of the substance
# Design: species or system P. falciparum D10 trophozoite lysates; single well
# 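Further: 30 min substrate incubation versus DMSO and 10 µM JCP410 controls.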
# Sequence of DPAP1 (Q8IIJ9 whole entry, looked up): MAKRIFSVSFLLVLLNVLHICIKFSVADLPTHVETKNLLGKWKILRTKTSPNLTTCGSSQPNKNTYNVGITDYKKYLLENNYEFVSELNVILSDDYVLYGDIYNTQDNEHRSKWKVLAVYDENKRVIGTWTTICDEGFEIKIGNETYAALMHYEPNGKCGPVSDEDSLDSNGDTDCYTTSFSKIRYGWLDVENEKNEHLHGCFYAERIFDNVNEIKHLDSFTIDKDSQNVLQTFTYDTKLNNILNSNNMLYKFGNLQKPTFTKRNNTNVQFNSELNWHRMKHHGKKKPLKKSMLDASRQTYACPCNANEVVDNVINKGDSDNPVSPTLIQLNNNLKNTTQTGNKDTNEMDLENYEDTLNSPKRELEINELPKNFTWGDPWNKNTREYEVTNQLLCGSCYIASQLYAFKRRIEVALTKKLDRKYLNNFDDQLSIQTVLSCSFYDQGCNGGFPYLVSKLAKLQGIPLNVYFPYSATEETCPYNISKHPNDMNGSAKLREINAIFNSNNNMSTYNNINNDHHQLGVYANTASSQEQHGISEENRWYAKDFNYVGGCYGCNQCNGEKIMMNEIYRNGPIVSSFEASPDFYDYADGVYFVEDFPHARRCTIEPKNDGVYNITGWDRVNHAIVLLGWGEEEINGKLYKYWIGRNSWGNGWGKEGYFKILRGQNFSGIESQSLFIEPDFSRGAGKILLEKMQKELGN
row,SMILES,% Inhibition @ 10 uM [%]
1,CCc1nc2ccccc2c(NC(=O)CNC(C)(C)CC(C)(C)C)c1C,3.21
2,O=S(=O)(c1ccccc1)c1cccc2c1N=S=N2,-5.28
3,CC(C)(C)c1[nH]nc2c1C(c1ccncc1)C(C#N)=C(N)O2 (stereo not drawn),-2.46
4,CCOc1ccc(C=C2C(=O)OC3(CCCCC3)OC2=O)cc1OC,-5.08
5,CC1=C(C(=O)Nc2ccccn2)C(c2ccc(N(C)C)cc2)C2=C(O)CCCC2=N1 (stereo not drawn),-6.34
6,Cc1csc(NC(=O)C(=O)c2cc(C)n(-c3ccccc3F)c2C)n1,-1.06
7,COc1ccccc1Nc1nc(-c2ccc(C)cc2)c(C)s1,1.26
8,CCc1ccccc1-n1nnc(-c2nc(-c3ccccc3C)no2)c1N,5.71
9,O=c1oc(-c2ccc(Br)cc2)nc2c1cnn2-c1ccccc1,3.05
10,CC(C)SC1=NSC2=NC(=O)/C(=C\c3ccc(F)cc3)C(=N)N21,0.205
11,Fc1cccc(-c2nn3c(Cn4nnc5ccccc54)nnc3s2)c1,2.89
12,COc1ccc(NCC2CCCCC2)cc1OC,-5.44
13,COCCN1C(=O)C(O)=C(C(=O)c2ccc(OC)c(C)c2)C1c1cccc(Br)c1 (stereo not drawn),-1.61
14,O=C(c1ccc(Cl)cc1)n1c(=O)oc2cc(S(=O)(=O)N3CCCCC3)ccc21,2.32
15,O=C(N1CCOCC1)C(O)(c1ccccc1)c1ccccc1,-2.03
16,CN(C)c1nc(OC(C(F)(F)F)C(F)(F)F)nc(N(c2ccccc2)c2ccccc2)n1,-2.51
17,O=S(=O)(c1c[nH]cn1)N1CCCCCC1,-0.499
18,O=c1c2c(-c3ccccc3)csc2nc2n1CCCCC2,-0.28
19,Cc1c(CC(=O)NCCc2ccc(F)cc2)c(=O)oc2cc(O)ccc12,-0.808
20,CCCCNC(=O)COc1ccc(C)cc1,4.33
21,COc1ccccc1CNC(=O)c1ccc(Br)o1,1.05

row,SMILES,% Inhibition @ 10 uM [%]
1,O=C1N=C(N2CCOCC2)S/C1=C\c1c2ccccc2cc2ccccc12,7.75
2,CCOc1ccc(C(=O)NCCN2CCCC2)cc1,3.53
3,COc1cc2c(cc1OC)C(c1cc(OC)c(OC)c(OC)c1)N(C)CC2 (stereo not drawn),-0.807
4,CC(=O)c1cccc(NC(=O)COc2ccc(Cl)cc2Br)c1,-3.26
5,COc1ccc(Br)cc1CNC(=O)c1ccc2nc(N3CCCCC3)sc2c1,0.0882
6,CC(C)C[C@H](NC(=O)c1ccc(Oc2ccccc2)cc1)C(=O)NCC#N,0.174
7,COCCN(C(=O)c1sc2nc3n(c(=O)c2c1C)CCCCC3)C1CCN(C(C)=O)CC1,-10.4
8,CCC1CCCCN1CCCNC(=O)Cn1nc(-c2ccc(C)cc2)ccc1=O (stereo not drawn),-2.99
9,Cc1cc(C)c(S(=O)(=O)NCCc2ccccc2)c(C)c1,-4.91
10,Cc1ccc(S(=O)(=O)N2CCC(C(=O)N3CCC4(CC3)OCCO4)CC2)cc1,-1.34
11,COc1ccc(OC)c(NC(=O)c2cccnc2)c1,3.85
12,Cc1ccccc1N1C(=O)C(Cl)=C(Nc2ccc(F)cc2)C1=O,-0.99
13,COC(=O)/C(C#N)=C/c1c(Oc2ccc(C)cc2)nc2c(C)cccn2c1=O,3.63
14,COc1ccccc1OC(C)C(=O)N(Cc1ccc(C)o1)C1CCS(=O)(=O)C1 (stereo not drawn),2.19
15,COc1cc(C2C3=C(O)CCCC3=NC(C)=C2C(=O)Nc2cc(C)ccn2)ccc1OCC(N)=O (stereo not drawn),-1.98
16,O=C(Cc1noc2ccccc12)NCc1ccccc1Cl,-8.99
17,CCC1CCCCN1C(=O)Cn1c2ccc(OC)cc2c2nc3n(c(=O)c21)CCS3 (stereo not drawn),-6.65
18,CCc1c(O)n(-c2ccccc2)c(SCc2ccccc2)nc1=O,-2.02
19,COc1nc2c(c(=O)n(C)c(=O)n2C)n1Cc1c(Cl)cccc1Cl,3.21
20,CCN(CC)c1cnn(-c2ccccc2)c(=O)c1N,0.273
21,COc1ccc(OC)c(Cn2c(-c3cc(OC)ccc3OC)nc3ccccc32)c1,2.73

row,SMILES,% Inhibition @ 10 uM [%]
1,CCOC(=O)c1c(NC(=O)N2CCC(CN3CCc4ccccc4C3)CC2)sc2c1CCCC2,2.22
2,CCOC(=O)c1cc(-c2cccc(N)c2)nc2ccccc12,5.01
3,COC(=O)c1ccc(/C=c2\sc3nc(-c4ccccc4C)nn3c2=O)cc1,-2.98
4,COc1ccc(S(=O)(=O)c2c(C(=O)c3ccc(C)cc3)cnc3ccc(OC)cc23)cc1,-9.3
5,CCOCCCNC(=O)c1ccc2c(Cl)c3c(nc2c1)CCCC3,-3.06
6,Cc1ccc(CNC(=O)[C@H](CCS(C)(=O)=O)N2Cc3ccccc3C2=O)cc1,2.93
7,Cc1ccc(C2CC(c3ccco3)n3ncnc3N2)cc1 (stereo not drawn),-10.5
8,CCOC(=O)N1CCN(C(=O)c2nc(-c3cccc(F)c3)n3c2CCCCC3)CC1,-7.8
9,Cc1ccc(N2C(N)=C(C#N)C(c3cccnc3)C3=C2CC(C)(C)CC3=O)cc1 (stereo not drawn),-1.44
10,Cc1cc(-c2ccc(O)cc2)nc2ccc3ccccc3c12,-1.97
11,COc1ccc(-c2cc3c(=O)n(CC(=O)N4CCN(Cc5ccccc5)CC4)ncn3n2)cc1,2.27
12,O=S(=O)(C=C(c1ccccc1)c1ccccc1)c1ccccc1,-3.26
13,CC1(C(=O)NC2CCCCCC2)Cc2ccccc2C(=O)N1Cc1ccc(F)cc1 (stereo not drawn),1.72
14,COc1ccc(CNS(=O)(=O)c2ccc3c(c2)OCC(C(=O)N2CCCCC2)O3)cc1 (stereo not drawn),7.04
15,Cc1ccc(-c2cn3c(n2)sc2cc(C(=O)N4CCC(N5CCCCC5)CC4)ccc23)cc1,27.5
16,CCOc1ccc2c(c1)C(SCC(=O)NCc1ccc(F)cc1)CC1(CCCC1)O2 (stereo not drawn),4.47
17,CC(NC(=O)c1cc2c(Cl)ccc3c2n1CCO3)c1ccccc1 (stereo not drawn),4.28
18,CCOC(=O)c1[nH]c(C)c(C(=O)NCCCN(C)C)c1C,0.0579
19,Cc1cc(C)c(NC(=O)CN2CCN(C/C=C/c3ccccc3)CC2)c(C)c1,6.77
20,Cn1c(=O)c2c(nc(N3CCNCC3)n2C)n(C)c1=O,2.73
21,Cc1cccc(OCCCCCCc2c(C)n[nH]c2C)c1C,0.0792
